Experimental findings from ChEMBL document CHEMBL4888484, “Replenishing the malaria drug discovery pipeline: Screening and hit evaluation of the MMV Hit Generation Library 1 (HGL1) against asexual blood stage Plasmodium falciparum ,using a nano luciferase reporter read-out” (2022) are described below.

The structures appear in SMILES notation. The whole screen tested about 150,000 compounds, of which about 540 (0.36%) showed an effect of 50% or more. The list shows a part of the results.

In this assay the test system is Plasmodium falciparum. The assay is described as follows: Primary screen in NF54 nanoGlo assay, in single point, at 2uM, 72h; a lower Z score goes with more inhibition. The class given is functional, Erythrocyte. Particulars: timepoint 72 hour.
For the molecule `COCc1cc(C(=O)N2CC(C)(C)c3c(Cl)cccc32)no1`, the “% Inhibition” value is reported as -3% and the Z score is listed as 0.48.
Consider `Cc1ccc(-n2cc(-c3ccccc3)nc2NC(=O)CN(Cc2ccco2)C(=O)c2ccccc2Cl)cc1`, for which the “% Inhibition” value is listed as 5% and the Z score is listed as -0.6.
On to `COc1ccc(-c2nnsc2C(=O)NCc2ccc(Cl)cc2)cc1`, for which the “% Inhibition” value is -6% and the Z score turned out to be 0.92.
Taken in the same sequence, the figures for `NC(=O)NCCC[C@@H]1NC(=O)[C@H](Cc2ccccc2)NC1=O` were -12% and 1.78.
Take `Cc1noc([C@@H]2CC(F)(F)CN2C(=O)c2cnco2)n1`: the “% Inhibition” value is -3% and the Z score is 0.48.
Taken in the same sequence, the figures for `CC(C)(C)OC(=O)NC1(CN)CCCCC1` were -14% and 1.14.
As for `CC(O)C(=O)NC(c1cccc(F)c1F)C(F)(F)F` (stereo not given), the “% Inhibition” value is given as -16% and the Z score is 2.5.
Taken in the same sequence, the figures for `c1cnn(-c2cncc(N3CCCCCCC3)n2)c1` were -18% and 1.79.
Turning to `Cc1noc(C)c1CNC(=O)N1CC(C)OC(c2ccsc2)C1` (stereo not given), the “% Inhibition” value was found to be 0% and the Z score is 0.06.
As for `COc1cccc(N2CCN(C(=O)COc3cccnc3)CC2(C)C)c1`, the “% Inhibition” value was -6% and the Z score is reported as 1.
As for `CCn1c(Cn2nc3ccccn3c2=O)nc2cc(F)ccc21`, the “% Inhibition” value is on record as -3% and the Z score was found to be 0.35.
Taken in the same sequence, the figures for `CC1COCC(C)N1C(=O)c1c[nH]c2ncccc12` (stereo not given) were 1% and -0.18.
As to `CCC(=O)N1CCC(NCc2nccn2C)C(CC)C1` (stereo not given), the “% Inhibition” value was -15% and the Z score is 2.17.
As for `COCc1nc(C(=O)NC2=NO[C@@H](C)C2)c(-c2ccccc2)s1`, the “% Inhibition” value is -6% and the Z score turned out to be 0.54.
On to `CCc1nccn1C1CCCN(S(=O)(=O)N(C)CC(C)C#N)C1` (stereo not given), for which the “% Inhibition” value is given as -10% and the Z score turned out to be 1.56.
For `Clc1ccc(-c2ccc(-c3nc4ccccc4s3)o2)cc1Cl` the same measures were 33% and -3.75.
Taken in the same sequence, the figures for `COc1ccc(C(=O)N2CCCCCNC(=O)[C@H]3C[C@H](C(=O)N4CCc5ccccc5C4)C[C@H]32)cn1` were -10% and 1.75.
Taken in the same sequence, the figures for `O=C(Cn1cc(N[C@H]2CCCc3sccc32)cn1)NCCO` were -3% and 0.37.
Regarding `CCc1cccc(OC[C@@H](O)Cn2c(-n3nc(C)cc3C)nc3c2c(=O)[nH]c(=O)n3C)c1`, the “% Inhibition” value was 3% and the Z score was -0.37.
Taken in the same sequence, the figures for `CC(C)(C)c1ccc(Cn2c(C(=O)NCc3ccco3)cc3cc(NC(=O)c4ccco4)ccc32)cc1` were -5% and 0.52.
For `c1cc([C@@H](NCc2nc(CC3CC3)no2)C2CC2)ccn1` the same measures were 0% and 0.07.
`COc1ccc(C(=O)N2CCN(c3nnc4ccc(Cl)cn34)CC2)cc1`: the “% Inhibition” value is given as -10% and the Z score stood at 1.87.
Take `CC1CCCC(OC(C)C(=O)N(C)C)C1` (stereo not given): the “% Inhibition” value is given as -1% and the Z score amounted to 0.07.
Taken in the same sequence, the figures for `Cc1nc(C)c(C)c(N(C)Cc2cccc(CN(C)C)c2)n1` were 0% and -0.03.
Taken in the same sequence, the figures for `Cn1c(-c2cccc(Cl)c2)cn2cc(-c3cccc(Br)c3)nc12` were -8% and 0.95.
Taken in the same sequence, the figures for `C[C@H]1CN(S(C)(=O)=O)C(C)(C)CO1` were -6% and 0.8.
`Cc1ccc(C)c(CNC(=O)[C@H]2CCc3nc(N4CCCC4)ncc3C2)c1`: the “% Inhibition” value was -4% and the Z score is 0.73.
For `C[C@]1(CO)C2CC[C@@H](O)[C@@H](CC(=O)N3CCCC3)[C@]2(C)CC[C@H]1OC(=O)Nc1ccccc1` (stereo not given in full), the “% Inhibition” value was -8% and the Z score was 1.18.
With `Cn1nccc1CNc1ncn(CC(=O)N2CCCCCC2)n1`, the “% Inhibition” value is given as -3% and the Z score was determined as 0.36.
Consider `Cc1cnc(OC2CCN(Cc3cn4cccc(F)c4n3)CC2)nc1`, for which the “% Inhibition” value was -14% and the Z score came to 2.23.
In the case of `O=C(NCCc1ccc(Cl)s1)C1CCC1`, the “% Inhibition” value stood at 5% and the Z score was -0.72.
For `O=C(NC(=O)C(F)(F)F)Nc1c(Cl)cc(Cl)cc1Cl`, the “% Inhibition” value came out at 3% and the Z score is on record as -0.44.
As for `Cc1ccc(S(=O)(=O)N2CC[C@H](Oc3cccc4cccnc34)C2)s1`, the “% Inhibition” value is -18% and the Z score stood at 3.51.
Regarding `COc1cccc([C@H]2CN(c3ccnc(C)n3)C[C@@H]2C(=O)O)c1OC`, the “% Inhibition” value is recorded as -10% and the Z score is 1.41.
Taken in the same sequence, the figures for `COc1ccc([C@@H]2CCC(=O)N2Cc2cc(F)cc(F)c2)cc1` were -16% and 1.95.
In the case of `CC1CN(C(=O)Nc2nncs2)CC(C)O1` (stereo not given), the “% Inhibition” value is reported as 21% and the Z score is reported as -2.79.
With `CC(C)n1ccc(CC(=O)Nc2cc(Cl)ccc2NC2CC2)n1`, the “% Inhibition” value is listed as -1% and the Z score stood at 0.1.
Taken in the same sequence, the figures for `Cc1cc(-c2ccc([C@H](C)N3CCCCC3)cc2)c(=O)[nH]n1` were 5% and -1.04.
As for `Cc1cccc(Nc2nc(C(=O)N3CCN(c4cccc(Cl)c4Cl)CC3)cs2)n1`, the “% Inhibition” value is 24% and the Z score is -2.7.
Taken in the same sequence, the figures for `CCN1CCC(NC(=O)c2nnn(Cc3ccc(F)cc3F)c2C)CC1` were 1% and -0.15.
Taken in the same sequence, the figures for `Cc1nccn1CCN(C)C[C@H](C)C(F)(F)F` were 1% and -0.14.
For the molecule `CC(c1cccnc1)N(C(=O)COCC1CCCO1)C1CC1` (stereo not given), the “% Inhibition” value is given as -6% and the Z score was 0.78.
On to `Cc1n[nH]c(C)c1CNC(=O)[C@]1(Cc2ccccc2)CCCCC(=O)N1`, for which the “% Inhibition” value was -12% and the Z score came to 1.35.
For `Cn1cnc2cc(C(=O)N3C[C@H]4C[C@H](O)[C@@H](O)C[C@H]4C3)cnc21` the same measures were -11% and 1.4.
`Cc1ccc(-c2cc(C(=O)NCC(C)(C)N3CCOCC3)n[nH]2)s1`: the “% Inhibition” value is -6% and the Z score was found to be 1.21.
For `COCCCNC(=O)c1cn2ccnc(-c3ccccc3)c2n1` the same measures were 33% and -3.76.
Take `C[C@H](F)CCNS(=O)(=O)N1CCCC1`: the “% Inhibition” value is -10% and the Z score stood at 1.2.
Taken in the same sequence, the figures for `Cc1ccc(NC(=O)c2cccc(CN3CCNC(=O)C3)c2)nn1` were -13% and 1.52.
For `Cc1cnc(CCNC(=O)[C@H]2CCN(c3ccccc3Cl)C2)nc1` the same measures were -7% and 1.15.
Taken in the same sequence, the figures for `Cc1nc2cc(NC(=O)c3sccc3C)ccc2o1` were -5% and 0.72.
On to `c1ccc2c(c1)CC(n1ncnc1COC[C@H]1CCCCO1)C2`, for which the “% Inhibition” value is -12% and the Z score came to 1.74.
Taken in the same sequence, the figures for `N#Cc1ncn(Cc2nnnn2-c2ccc(OC(F)F)cc2)c1C#N` were -4% and 0.44.
For `CCc1ccc(N2CC(C(=O)N3CCOCC3CC(C)=O)CC2=O)cc1` (stereo not given) the same measures were -16% and 1.4.
For `CCOc1ncccc1C(=O)Nc1cccnc1-n1cccn1` the same measures were -13% and 1.24.
Take `C[C@@](CO)(CNCc1cn2ccccc2n1)c1ccccc1`: the “% Inhibition” value is given as -7% and the Z score came to 1.48.
Taken in the same sequence, the figures for `O=c1[nH]cnc2[nH]c(-c3ccccc3)nc12` were 2% and -0.22.
For `CC1(C)OC(=O)N(CCCCOc2ccccc2)C1=O` the same measures were -16% and 2.2.
For `CC(C)N(CC(F)(F)F)C(=O)CN1C(=O)C[C@@](C)(C(C)C)C1=O`, the “% Inhibition” value is on record as -2% and the Z score worked out at 0.27.
As to `Cc1cc(C)n(-c2nc3c(c(=O)n2CC(=O)Nc2ccc4c(c2)OCO4)CCC3)n1`, the “% Inhibition” value was 8% and the Z score was -1.01.
In the case of `Cc1ccc(S(=O)(=O)c2ccc(C(=O)Nc3cccc(C#N)c3)s2)cc1`, the “% Inhibition” value is reported as -16% and the Z score is listed as 1.97.
For `O=C(Nc1ccccn1)c1cccnc1O` the same measures were -7% and 1.27.
As to `C[C@@H](C1CC1)N(CC(F)(F)F)C(=O)c1ccco1`, the “% Inhibition” value came out at 3% and the Z score is on record as -0.58.
Taken in the same sequence, the figures for `CCCN(CCC)CCN1C(=O)[C@@H]2C(C(=O)Nc3cccc(OC)c3)[C@@H]3C=C[C@]2(O3)C1C(=O)NC1CCCCC1C` (stereo not given in full) were 25% and -3.85.
Turning to `Cc1cc(=O)c(C(=O)NC[C@H]2CCCO2)c(Cc2cccc(F)c2)n1CCCN1CCOCC1`, the “% Inhibition” value is on record as -13% and the Z score is recorded as 1.89.
`Cc1ccc(NCc2cn3c(C)cc(C)nc3n2)c(F)c1`: the “% Inhibition” value was -2% and the Z score was 0.39.
For `CCN(CC)C(=O)[C@@H]1CC2(CN(Cc3ccccc3)C2)CN1C` the same measures were -3% and 0.35.
Taken in the same sequence, the figures for `NC(=O)Cc1nc(C2CCC2)n(Cc2c(F)cccc2Cl)n1` were 2% and -0.32.
Consider `CC(C)(C)OC(=O)[C@@H]1OCCNC1=O`, for which the “% Inhibition” value is -11% and the Z score was determined as 1.39.
`COc1cccc(-c2cnccn2)c1C(=O)N(C(C)C)C(C)C`: the “% Inhibition” value was -14% and the Z score is recorded as 1.88.
Take `O=C(Nc1ccc(Cl)cc1)C1CCN(C(=O)c2ccc3c(c2)nnn3C2CCCC2)CC1`: the “% Inhibition” value is given as -4% and the Z score is recorded as 0.74.
For `Cc1ccc(CC(=O)N[C@H](CO)CC(C)(C)C)cc1O` the same measures were -8% and 0.96.
Regarding `CS(=O)(=O)N1CCC(OC2CCN(C(=O)Nc3ccccc3)CC2)CC1`, the “% Inhibition” value is 3% and the Z score is reported as -0.37.
Taken in the same sequence, the figures for `CN1CC2(C[C@H]1c1nnc(-c3ccccc3)o1)CN(C(=O)c1cncnc1)C2` were -6% and 0.68.
Taken in the same sequence, the figures for `C[C@H](NCc1ccc(-c2ccc(Cl)cc2F)o1)c1ncn[nH]1` were -14% and 1.66.
For `CC1=C(C(N)=O)[C@H](c2cccc(Oc3ccccc3)c2)n2ncnc2N1` the same measures were 1% and -0.15.
As to `COc1ccc([C@H](C)NC(=O)NCCc2csc(C)n2)c(OC)c1`, the “% Inhibition” value worked out at 2% and the Z score is listed as -0.3.
Taken in the same sequence, the figures for `Cn1nc(N2CCC[C@H](NS(=O)(=O)Cc3ccccc3)C2)ccc1=O` were -14% and 1.76.
For `Cc1nn(C)c2nc(N(C)CCN3CCCCC3=O)sc12` the same measures were 5% and -0.72.
Taken in the same sequence, the figures for `Cc1cc(C)n2c(C(=O)N(C)Cc3c(C)noc3C)nnc2n1` were -3% and 0.61.
Regarding `COc1ccc(Cn2nc(C)cc2NC(=O)N2C[C@H]3CC[C@H]2C3)cc1OC`, the “% Inhibition” value is reported as -23% and the Z score turned out to be 3.41.
Taken in the same sequence, the figures for `CCc1oc(C(=O)N2CCC[C@@H]2CC)cc1CN(CC)CC` were -16% and 1.78.
For `C[C@H](Oc1ccc(F)cc1)C(=O)N1CCCc2cc(S(=O)(=O)N3CCCC3)ccc21` the same measures were -9% and 1.18.
Taken in the same sequence, the figures for `COCCCn1nccc1CNc1nnc(-c2cccc(OC(F)F)c2)o1` were -11% and 1.25.
Regarding `CN1CCN([C@H]2CCN(Cc3cc(C(C)(C)C)[nH]n3)C[C@H]2CCC(=O)O)CC1`, the “% Inhibition” value was -4% and the Z score worked out at 0.82.
For the molecule `O=C(c1ccc[nH]1)N1C[C@@H]2OC(=O)N(CCc3cccc(Cl)c3)[C@@H]2C1`, the “% Inhibition” value is -9% and the Z score came to 1.63.

The term % Inhibition denotes the relative decrease from the control value, in per cent.
